Measured values reported in the supplement of paper PMC8728848.
The list shows a part of the results.

Assays:
Test in all cases: glycan array binding signal (z-score within array); higher = stronger binding
Details in all cases: glycan notation: IUPAC condensed, linker removed
[1] = target: Gal(b1-3)GalNAc(a1-3)[Fuc(a1-2)]Gal(b1-4)GlcNAc
In short: (§1)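 Glycan array data were curated from 3228 arrays in the Consortium for Functional Glycomics database and kept only where the protein sequence was available. Glycan names were converted to IUPAC-condensed notation, and columns mapping to the same glycan were averaged. The binding signal is a within-array Z-score, averaged across arrays of the same protein sequence at different concentrations or buffers and across linkers. Negative Z-scores can be read as non-binding.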

[2] = target: Gal(b1-3)GalNAc(b1-3)Gal(a1-4)Gal(b1-4)Glc
In short: as §1

[3] = target: Gal(b1-3)GalNAc(b1-4)Gal(b1-4)Glc
In short: as §1

[4] = target: Gal(b1-3)GalNAc(b1-4)[Neu5Ac(a2-3)]Gal(b1-4)Glc
In short: as §1

Gal(b1-3)GlcNAc = target: Gal(b1-3)GlcNAc
In short: as §1

[5] = target: Gal(b1-3)GlcNAc(a1-6)Gal(b1-4)GlcNAc
In short: as §1

[6] = target: Gal(b1-3)GlcNAc(b1-2)Man(a1-3)[Gal(b1-3)GlcNAc(b1-2)Man(a1-6)]Man(b1-4)GlcNAc(b1-4)GlcNAc
In short: as §1

[7] = target: Gal(b1-3)GlcNAc(b1-2)Man(a1-3)[Gal(b1-3)GlcNAc(b1-2)Man(a1-6)]Man(b1-4)GlcNAc(b1-4)[Fuc(a1-6)]GlcNAc
In short: as §1

[8] = target: Gal(b1-3)GlcNAc(b1-3)Gal(b1-3)GlcNAc
In short: as §1

[9] = target: Gal(b1-3)GlcNAc(b1-3)Gal(b1-4)Glc
In short: as §1

[10] = target: Gal(b1-3)GlcNAc(b1-3)Gal(b1-4)GlcNAc
In short: as §1

[11] = target: Gal(b1-3)GlcNAc(b1-3)Gal(b1-4)GlcNAc(b1-6)[Gal(b1-3)GlcNAc(b1-3)]Gal(b1-4)Glc
In short: as §1

[12] = target: Gal(b1-3)GlcNAc(b1-3)Gal(b1-4)[Fuc(a1-3)]GlcNAc(b1-6)[Gal(b1-3)GlcNAc(b1-3)]Gal(b1-4)Glc
In short: as §1

[13] = target: Gal(b1-3)GlcNAc(b1-3)GalNAc
In short: as §1

[14] = target: Gal(b1-3)GlcNAc(b1-6)Gal(b1-4)GlcNAc
In short: as §1

[15] = target: Gal(b1-3)[Fuc(a1-4)]GlcNAc
In short: as §1

[16] = target: Gal(b1-3)[Fuc(a1-4)]GlcNAc(b1-2)Man(a1-3)[Gal(b1-3)[Fuc(a1-4)]GlcNAc(b1-2)Man(a1-6)]Man(b1-4)GlcNAc(b1-4)GlcNAc
In short: as §1

[17] = target: Gal(b1-3)[Fuc(a1-4)]GlcNAc(b1-2)Man(a1-3)[Gal(b1-3)[Fuc(a1-4)]GlcNAc(b1-2)Man(a1-6)]Man(b1-4)GlcNAc(b1-4)[Fuc(a1-6)]GlcNAc
In short: as §1

[18] = target: Gal(b1-3)[Fuc(a1-4)]GlcNAc(b1-3)Gal(b1-3)[Fuc(a1-4)]GlcNAc
In short: as §1

[19] = target: Gal(b1-3)[Fuc(a1-4)]GlcNAc(b1-3)Gal(b1-4)GlcNAc
In short: as §1

[20] = target: Gal(b1-3)[Fuc(a1-4)]GlcNAc(b1-3)Gal(b1-4)[Fuc(a1-3)]GlcNAc
In short: as §1

[21] = target: Gal(b1-3)[GlcNAc(b1-6)]GalNAc
In short: as §1

[22] = target: Gal(b1-3)[Neu5Ac(a2-6)]GalNAc
In short: as §1

[23] = target: Gal(b1-3)[Neu5Ac(a2-6)]GlcNAc(b1-6)Gal(b1-4)Glc
In short: as §1

[24] = target: Gal(b1-3)[Neu5Ac(b2-6)]GalNAc
In short: as §1

[25] = target: Gal(b1-4)GalNAc(a1-3)[Fuc(a1-2)]Gal(b1-4)GlcNAc
In short: as §1

[26] = target: Gal(b1-4)GalNAc(b1-3)[Fuc(a1-2)]Gal(b1-4)GlcNAc
In short: as §1

Gal(b1-4)Glc = target: Gal(b1-4)Glc
In short: as §1

Gal(b1-4)Glc6S = target: Gal(b1-4)Glc6S
In short: as §1

Gal(b1-4)GlcNAc = target: Gal(b1-4)GlcNAc
In short: as §1

[27] = target: Gal(b1-4)GlcNAc(a1-6)Gal(b1-4)GlcNAc
In short: as §1

[28] = target: Gal(b1-4)GlcNAc(b1-2)Man(a1-3)Man(b1-4)GlcNAc(b1-4)GlcNAc
In short: as §1

[29] = target: Gal(b1-4)GlcNAc(b1-2)Man(a1-3)[Gal(b1-4)GlcNAc(b1-2)Man(a1-6)]Man(b1-4)GlcNAc(b1-4)GlcNAc
In short: as §1

[30] = target: Gal(b1-4)GlcNAc(b1-2)Man(a1-3)[Gal(b1-4)GlcNAc(b1-2)Man(a1-6)]Man(b1-4)GlcNAc(b1-4)[Fuc(a1-6)]GlcNAc
In short: as §1

[31] = target: Gal(b1-4)GlcNAc(b1-2)Man(a1-3)[GlcNAc(b1-2)Man(a1-6)]Man(b1-4)GlcNAc(b1-4)GlcNAc
In short: as §1

[32] = target: Gal(b1-4)GlcNAc(b1-2)Man(a1-3)[Man(a1-6)]Man(b1-4)GlcNAc(b1-4)GlcNAc
In short: as §1

[33] = target: Gal(b1-4)GlcNAc(b1-2)Man(a1-6)Man(b1-4)GlcNAc(b1-4)GlcNAc
In short: as §1

[34] = target: Gal(b1-4)GlcNAc(b1-2)Man(a1-6)[GlcNAc(b1-2)Man(a1-3)]Man(b1-4)GlcNAc(b1-4)GlcNAc
In short: as §1

[35] = target: Gal(b1-4)GlcNAc(b1-2)Man(a1-6)[Man(a1-3)]Man(b1-4)GlcNAc(b1-4)GlcNAc
In short: as §1

[36] = target: Gal(b1-4)GlcNAc(b1-2)[Gal(b1-4)GlcNAc(b1-4)]Man(a1-3)[Gal(b1-4)GlcNAc(b1-2)Man(a1-6)]Man(b1-4)GlcNAc(b1-4)GlcNAc
In short: as §1

[37] = target: Gal(b1-4)GlcNAc(b1-2)[Gal(b1-4)GlcNAc(b1-4)]Man(a1-3)[Gal(b1-4)GlcNAc(b1-2)[Gal(b1-4)GlcNAc(b1-6)]Man(a1-6)]Man(b1-4)GlcNAc(b1-4)GlcNAc
In short: as §1

[38] = target: Gal(b1-4)GlcNAc(b1-3)Gal(b1-3)GlcNAc
In short: as §1

[39] = target: Gal(b1-4)GlcNAc(b1-3)Gal(b1-4)Glc
In short: as §1

[40] = target: Gal(b1-4)GlcNAc(b1-3)Gal(b1-4)GlcNAc
In short: as §1

[41] = target: Gal(b1-4)GlcNAc(b1-3)Gal(b1-4)GlcNAc(b1-3)Gal(b1-4)GlcNAc
In short: as §1

B1: SSL (Salmo salar) (protein)
chain: TGAKGAEEGVVPAETRNQCPTGWFQFGSRCFMFVETARSWPLAERHCVSLGANLASVHSSADDQFLQAIAGCKTGAFSTTWIGGFDAVQDRLWFWSDGSEFDYQNWAKGEPNNSGGREPCIVINWGDEYRWNDIKCGNSFPSVCSKRICEIQKN
glycan array binding signal (z-score) [1]: -0.171 | glycan array binding signal (z-score) [2]: -0.11 | glycan array binding signal (z-score) [3]: -0.17 | glycan array binding signal (z-score) [4]: -0.142 | glycan array binding signal (z-score) (Gal(b1-3)GlcNAc): -0.157 | glycan array binding signal (z-score) [5]: -0.181 | glycan array binding signal (z-score) [6]: -0.171 | glycan array binding signal (z-score) [7]: -0.159 | glycan array binding signal (z-score) [8]: -0.179 | glycan array binding signal (z-score) [9]: -0.167 | glycan array binding signal (z-score) [10]: -0.183 | glycan array binding signal (z-score) [11]: 0.451 | glycan array binding signal (z-score) [12]: -0.183 | glycan array binding signal (z-score) [13]: -0.165 | glycan array binding signal (z-score) [14]: -0.163 | glycan array binding signal (z-score) [15]: -0.145 | glycan array binding signal (z-score) [16]: -0.118 | glycan array binding signal (z-score) [17]: -0.123 | glycan array binding signal (z-score) [18]: -0.151 | glycan array binding signal (z-score) [19]: -0.167 | glycan array binding signal (z-score) [20]: -0.17 | glycan array binding signal (z-score) [21]: -0.16 | glycan array binding signal (z-score) [22]: -0.18 | glycan array binding signal (z-score) [23]: -0.167 | glycan array binding signal (z-score) [24]: -0.175 | glycan array binding signal (z-score) [25]: -0.174 | glycan array binding signal (z-score) [26]: -0.178 | glycan array binding signal (z-score) (Gal(b1-4)Glc): -0.172 | glycan array binding signal (z-score) (Gal(b1-4)Glc6S): -0.134 | glycan array binding signal (z-score) (Gal(b1-4)GlcNAc): -0.154 | glycan array binding signal (z-score) [27]: -0.168 | glycan array binding signal (z-score) [28]: -0.18 | glycan array binding signal (z-score) [29]: -0.167 | glycan array binding signal (z-score) [30]: -0.172 | glycan array binding signal (z-score) [31]: -0.179 | glycan array binding signal (z-score) [32]: -0.18 | glycan array binding signal (z-score) [33]: -0.17 | glycan array binding signal (z-score) [34]: -0.167 | glycan array binding signal (z-score) [35]: -0.163 | glycan array binding signal (z-score) [36]: -0.183 | glycan array binding signal (z-score) [37]: -0.182 | glycan array binding signal (z-score) [38]: -0.174 | glycan array binding signal (z-score) [39]: -0.166 | glycan array binding signal (z-score) [40]: -0.178 | glycan array binding signal (z-score) [41]: -0.182
